According to patent publication US7074789B2, “Kinase inhibitors” (Amgen Inc., priority 1999, dated 2006):
A number of entries come with more than one value. This is not the full list of results. An entry can have further records. Results that share an entry appear to be repeats (runs, samples, wells or individuals).

Biological target: T1, EGFR (Homo sapiens, UniProt P00533)
T1 construct: Kinases are expressed as either kinase domains or full length constructs; made in house
Assay: Kinase inhibition assay (33P transfer), EGFR
Type: biochemical
Details: Table 2, kinase inhibition class; read-out: EGFR-1
Source text: The inhibitor compounds described herein are screened in the following manner. Kinases suitable for use in the following protocol to determine kinase activity of the compounds described herein include, -but are not limited to: Lck, Lyn, Src, Fyn, Syk, Zap-70, Itk, Tec, Btk, EGFR, ErbB2, Kdr, Flt-1, Flt-3, Tek, c-Met, InsR, and AKT.
Kinases are expressed as either kinase domains or full length constructs fused to glutathione S-transferase (GST) or polyHistidine tagged fusion proteins in either E. colior Baculovirus-High Five expression systems. They are purified to near homogeneity by affinity chromatography essentially as previously described (Lehr et al., 1996; Gish et al., 1995). In some instances, kinases are co-expressed or mixed with purified or partially purified regulatory polypeptides prior to measurement of activity.
Kinase activity and inhibition are measured essentially by established protocols (Braunwalder et al., 1996). Briefly, The transfer of ^33PO4 from ATP to the synthetic substrates poly(Glu, Tyr) 4:1 or poly(Arg, Ser) 3:1 attached to the bioactive surface of microtiter plates serves as the basis to evaluate enzyme activity. After an incubation period, the amount of phosphate transferred is measured by first washing the plate with 0.5% phosphoric acid, adding liquid scintillant, and then counting in a liquid scintillation detector. […]

T1 sequence (P00533 25-1210, species assumed): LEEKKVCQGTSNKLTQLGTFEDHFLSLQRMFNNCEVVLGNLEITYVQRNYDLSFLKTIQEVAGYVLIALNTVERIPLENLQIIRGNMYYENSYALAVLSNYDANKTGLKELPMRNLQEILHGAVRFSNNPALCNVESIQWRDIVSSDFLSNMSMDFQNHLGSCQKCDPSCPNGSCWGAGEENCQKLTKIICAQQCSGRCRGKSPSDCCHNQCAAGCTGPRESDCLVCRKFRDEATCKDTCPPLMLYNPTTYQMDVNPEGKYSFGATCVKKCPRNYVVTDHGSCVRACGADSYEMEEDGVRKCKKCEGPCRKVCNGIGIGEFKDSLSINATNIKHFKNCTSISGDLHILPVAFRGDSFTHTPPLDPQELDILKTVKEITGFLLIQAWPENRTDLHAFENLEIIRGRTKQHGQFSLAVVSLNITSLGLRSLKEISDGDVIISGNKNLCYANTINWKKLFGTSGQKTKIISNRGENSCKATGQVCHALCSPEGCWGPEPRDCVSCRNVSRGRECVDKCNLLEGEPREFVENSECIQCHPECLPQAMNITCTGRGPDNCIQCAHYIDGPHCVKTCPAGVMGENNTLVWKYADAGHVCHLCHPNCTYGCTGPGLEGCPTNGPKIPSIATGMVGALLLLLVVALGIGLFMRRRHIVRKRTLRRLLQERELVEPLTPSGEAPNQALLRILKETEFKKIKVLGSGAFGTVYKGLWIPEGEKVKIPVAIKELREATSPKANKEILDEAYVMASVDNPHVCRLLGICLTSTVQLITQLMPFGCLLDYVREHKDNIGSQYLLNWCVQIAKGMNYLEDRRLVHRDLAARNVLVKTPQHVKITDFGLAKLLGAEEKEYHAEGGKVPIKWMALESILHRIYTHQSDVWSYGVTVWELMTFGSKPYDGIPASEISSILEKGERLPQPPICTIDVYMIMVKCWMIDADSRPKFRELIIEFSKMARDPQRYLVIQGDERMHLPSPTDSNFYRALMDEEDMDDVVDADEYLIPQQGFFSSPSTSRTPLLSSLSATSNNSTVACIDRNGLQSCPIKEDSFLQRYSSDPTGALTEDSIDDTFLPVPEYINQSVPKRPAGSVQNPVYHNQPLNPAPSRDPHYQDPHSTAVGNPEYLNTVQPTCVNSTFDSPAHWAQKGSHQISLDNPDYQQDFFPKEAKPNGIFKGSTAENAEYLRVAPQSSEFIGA

Compound: COc1cc(Nc2ncnc(-n3c(NC4c5ccccc5CC4O)nc4ccccc43)n2)cc(OC)c1OC (stereo not shown) [Compound 579]
- IC50: > 8.56 µM and < 761 nM [lines of one column]
